This is one part of the list.
How the values were obtained:
Assay in all cases: glycan array binding signal (z-score within array); higher = stronger binding
Conditions in all cases: glycan notation: IUPAC condensed, linker removed
[1] = target: GalNAc(b1-4)GlcNAc(b1-2)Man
Outline: (§1)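 Columns mapping to the same glycan were averaged after glycan names were converted to IUPAC-condensed notation. The data come from 3228 arrays in the Consortium for Functional Glycomics database, limited to those with an available protein sequence. Binding is reported as a within-array Z-score averaged across arrays of one protein sequence and across linkers.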

[2] = target: GalNAc(b1-4)GlcNAc(b1-2)Man(a1-3)[GalNAc(b1-4)GlcNAc(b1-2)Man(a1-6)]Man(b1-4)GlcNAc(b1-4)GlcNAc
Outline: as §1

[3] = target: GalNAc(b1-4)GlcNAc(b1-3)GalNAc(b1-4)GlcNAc
Outline: as §1

GalNAc(b1-4)GlcNAc6S = target: GalNAc(b1-4)GlcNAc6S
Outline: as §1

GalNAc(b1-6)GalNAc = target: GalNAc(b1-6)GalNAc
Outline: as §1

GalNAc3S(b1-4)GlcNAc = target: GalNAc3S(b1-4)GlcNAc
Outline: as §1

GalNAc3S(b1-4)GlcNAc3S = target: GalNAc3S(b1-4)GlcNAc3S
Outline: as §1

[4] = target: GalNAc3S(b1-4)[Fuc(a1-3)]GlcNAc
Outline: as §1

GalNAc4S6S(b1-4)GlcNAc = target: GalNAc4S6S(b1-4)GlcNAc
Outline: as §1

GalNAc6S(b1-4)GlcNAc = target: GalNAc6S(b1-4)GlcNAc
Outline: as §1

Glc(a1-4)Glc = target: Glc(a1-4)Glc
Outline: as §1

[5] = target: Glc(a1-4)Glc(a1-4)Glc(a1-4)Glc
Outline: as §1

Glc(a1-6)Glc(a1-6)Glc = target: Glc(a1-6)Glc(a1-6)Glc
Outline: as §1

[6] = target: Glc(a1-6)Glc(a1-6)Glc(a1-6)Glc
Outline: as §1

Glc(b1-4)Glc = target: Glc(b1-4)Glc
Outline: as §1

Glc(b1-6)Glc = target: Glc(b1-6)Glc
Outline: as §1

GlcA(b1-3)Gal = target: GlcA(b1-3)Gal
Outline: as §1

GlcA(b1-3)GlcNAc = target: GlcA(b1-3)GlcNAc
Outline: as §1

GlcA(b1-6)Gal = target: GlcA(b1-6)Gal
Outline: as §1

[7] = target: GlcA3S(b1-3)Gal(b1-4)GlcNAc(b1-2)Man
Outline: as §1

[8] = target: GlcA3S(b1-3)Gal(b1-4)GlcNAc(b1-3)Gal(b1-4)Glc
Outline: as §1

[9] = target: GlcNAc(a1-3)Gal(b1-4)GlcNAc
Outline: as §1

[10] = target: GlcNAc(a1-4)Gal(b1-3)GlcNAc
Outline: as §1

[11] = target: GlcNAc(a1-4)Gal(b1-4)GalNAc
Outline: as §1

[12] = target: GlcNAc(a1-4)Gal(b1-4)GlcNAc
Outline: as §1

[13] = target: GlcNAc(a1-4)Gal(b1-4)GlcNAc(b1-3)Gal(b1-4)Glc
Outline: as §1

[14] = target: GlcNAc(a1-4)Gal(b1-4)GlcNAc(b1-3)Gal(b1-4)GlcNAc
Outline: as §1

[15] = target: GlcNAc(a1-4)Gal(b1-4)GlcNAc(b1-3)Gal(b1-4)GlcNAc(b1-3)Gal(b1-4)GlcNAc
Outline: as §1

[16] = target: GlcNAc(a1-4)Gal(b1-4)GlcNAc(b1-3)Gal(b1-4)[Fuc(a1-3)]GlcNAc(b1-3)Gal(b1-4)[Fuc(a1-3)]GlcNAc
Outline: as §1

[17] = target: GlcNAc(a1-6)Gal(b1-4)GlcNAc
Outline: as §1

B1: Pa IMPa (Pseudomonas aeruginosa), Q9I5W4 (protein)
chain: MSLSTTAFPSLQGENMSRSPIPRHRALLAGFCLAGALSAQAATQEEILDAALVSGDSSQLTDSHLVALRLQQQVERIRQTRTQLLDGLYQNLSQAYDPGAASMWVLPANPDNTLPFLIGDKGRVLASLSLEAGGRGLAYGTNVLTQLSGTNAAHAPLLKRAVQWLVNGDPGAATAKDFKVSVVGVDKTAALNGLKSAGLQPADAACNALTDASCASTSKLLVLGNGASAASLSATVRARLQAGLPILFVHTNGWNQSSTGQQILAGLGLQEGPYGGNYWDKDRVPSSRTRTRSVELGGAYGQDPALVQQIVDGSWRTDYDWSKCTSYVGRTTCDDVPGLSDFSKRVDVLKGALDAYNQKAQNLFALPGTTSLRLWLLWADAVRQNIRYPMDKAADTARFQETFVADAIVGYVREAGAAQKELGSYAGQRQQSMPVSGSEETLTLTLPSAQGFTAIGRMAAPGKRLSIRIEDAGQASLAVGLNTQRIGSTRLWNTRQYDRPRFLKSPDIKLQANQSVALVSPYGGLLQLVYSGATPGQTVTVKVTGAASQPFLDIQPGEDSSQAIADFIQALDADKADWLEIRSGSVEVHAKVEKVRGSIDKDYGGDVQRFIRELNEVFIDDAYTLAGFAIPNQAKTPAIQQECAARGWDCDSETLHKLPGTQHINVDQYAQCGGGCSGNPYDQTWGLNPRGWGESHELGHNLQVNRLKVYGGRSGEISNQIFPLHKDWRVLREFGQNLDDTRVNYRNAYNLIVAGRAEADPLAGVYKRLWEDPGTYALNGERMAFYTQWVHYWADLKNDPLQGWDIWTLLYLHQRQVDKSDWDANKAALGYGTYAQRPGNSGDASSTDGNDNLLLGLSWLTQRDQRPTFALWGIRTSAAAQAQVAAYGFAEQPAFFYANNRTNEYSTVKLLDMSQGSPAWPFP
glycan array binding signal (z-score) [1]: 0.357
glycan array binding signal (z-score) [2]: -0.382
glycan array binding signal (z-score) [3]: -0.197
glycan array binding signal (z-score) (GalNAc(b1-4)GlcNAc6S): -0.239
glycan array binding signal (z-score) (GalNAc(b1-6)GalNAc): -0.401
glycan array binding signal (z-score) (GalNAc3S(b1-4)GlcNAc): -0.398
glycan array binding signal (z-score) (GalNAc3S(b1-4)GlcNAc3S): 0.008
glycan array binding signal (z-score) [4]: -0.267
glycan array binding signal (z-score) (GalNAc4S6S(b1-4)GlcNAc): 1.48
glycan array binding signal (z-score) (GalNAc6S(b1-4)GlcNAc): -0.463
glycan array binding signal (z-score) (Glc(a1-4)Glc): -0.441
glycan array binding signal (z-score) [5]: 0.634
glycan array binding signal (z-score) (Glc(a1-6)Glc(a1-6)Glc): -0.304
glycan array binding signal (z-score) [6]: 0.853
glycan array binding signal (z-score) (Glc(b1-4)Glc): -0.058
glycan array binding signal (z-score) (Glc(b1-6)Glc): -0.442
glycan array binding signal (z-score) (GlcA(b1-3)Gal): -0.387
glycan array binding signal (z-score) (GlcA(b1-3)GlcNAc): -0.276
glycan array binding signal (z-score) (GlcA(b1-6)Gal): -0.196
glycan array binding signal (z-score) [7]: 0.072
glycan array binding signal (z-score) [8]: 0.054
glycan array binding signal (z-score) [9]: 0.061
glycan array binding signal (z-score) [10]: -0.128
glycan array binding signal (z-score) [11]: 0.088
glycan array binding signal (z-score) [12]: 3.49
glycan array binding signal (z-score) [13]: 0.308
glycan array binding signal (z-score) [14]: -0.321
glycan array binding signal (z-score) [15]: -0.003
glycan array binding signal (z-score) [16]: 0.66
glycan array binding signal (z-score) [17]: -0.364

From the supplement of paper PMC8728848
